Laboratory results from PubChem BioAssay AID256 (DTP/NCI, 2004).
Several values for one entry are separate records, joined by “and”; a condition that tells them apart may be missing. Equal entries are not always repeated. The source gives many values for each of these; only a part stands here. Toxic doses and inconclusive results are not listed.

Tested on: CD2F1 mice, L1210 leukemia ip, survival T/C
Assay: NCI In Vivo Anticancer Drug Screen. Data for tumor model L1210 Leukemia (intraperitoneal) in CD2F1 (CDF1) mice
Details: higher = longer survival
Procedure, shortened: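 Mice carrying a transplanted tumor received test compound or vehicle alone. The value is the measurement in the treated group divided by that in the vehicle-treated control group.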

SMILES: O=c1n(CC2CO2)c(=O)n(CC2CO2)c(=O)n1CC1CO1 (stereo not drawn)
- T/C (endpoint: mean survival time, dose: 25.0 mg/kg/injection, schedule: Q01DX009 (ip), vehicle: saline with Tween-80): 198 % of control
- T/C (endpoint: mean survival time, dose: 25.0 mg/kg/injection, schedule: Q01DX009 (ip), vehicle: suspension in saline): 168 % of control
- T/C (endpoint: mean survival time, dose: 50.0 mg/kg/injection, schedule: Q01DX009 (ip), vehicle: saline with Tween-80): 277 % of control
- T/C (endpoint: mean survival time, dose: 50.0 mg/kg/injection, schedule: Q01DX009 (ip), vehicle: saline): 419 % of control
- T/C (endpoint: mean survival time, dose: 50.0 mg/kg/injection, schedule: Q01DX009 (ip), vehicle: suspension in saline): 203 % of control and 285 % of control
- T/C (endpoint: mean survival time, dose: 100.0 mg/kg/injection, schedule: Q01DX009 (ip), vehicle: saline with Tween-80): 297 % of control
- T/C (endpoint: mean survival time, dose: 100.0 mg/kg/injection, schedule: Q01DX009 (ip), vehicle: saline): 172 % of control and 253 % of control
- T/C (endpoint: mean survival time, dose: 100.0 mg/kg/injection, schedule: Q01DX009 (ip), vehicle: suspension in saline): 315 % of control
- T/C (endpoint: mean survival time, dose: 150.0 mg/kg/injection, schedule: Q01DX009 (ip), vehicle: saline): 211 % of control
- T/C (endpoint: mean survival time, dose: 150.0 mg/kg/injection, schedule: Q04DX003 (ip), vehicle: saline): 243 % of control
- T/C (endpoint: mean survival time, dose: 200.0 mg/kg/injection, schedule: Q01DX009 (ip), vehicle: saline): 386 % of control
- T/C (endpoint: mean survival time, dose: 200.0 mg/kg/injection, schedule: Q04DX005 (ip), vehicle: saline): 171 % of control
- T/C (endpoint: mean survival time, dose: 300.0 mg/kg/injection, schedule: Q01DX009 (ip), vehicle: saline): 96 % of control
- T/C (endpoint: mean survival time, dose: 300.0 mg/kg/injection, schedule: Q04DX003 (ip), vehicle: saline): 309 % of control
- T/C (endpoint: mean survival time, dose: 300.0 mg/kg/injection, schedule: Q04DX005 (ip), vehicle: saline): 177 % of control
- T/C (endpoint: median survival time, dose: 15.0 mg/kg/injection, schedule: Q03HX024 (ip), vehicle: saline): 246 % of control
- T/C (endpoint: median survival time, dose: 20.0 mg/kg/injection, schedule: Q03HX016 (ip), vehicle: saline): 256 % of control
- T/C (endpoint: median survival time, dose: 25.0 mg/kg/injection, schedule: Q03HX008 (ip), vehicle: saline): 186 % of control
- T/C (endpoint: median survival time, dose: 25.0 mg/kg/injection, schedule: Q03HX024 (ip), vehicle: saline): 740 % of control
- T/C (endpoint: median survival time, dose: 30.0 mg/kg/injection, schedule: Q03HX016 (ip), vehicle: saline): 296 % of control
- T/C (endpoint: median survival time, dose: 35.0 mg/kg/injection, schedule: Q03HX008 (ip), vehicle: saline): 172 % of control
- T/C (endpoint: median survival time, dose: 45.0 mg/kg/injection, schedule: Q03HX008 (ip), vehicle: saline): 111 % of control
- T/C (endpoint: median survival time, dose: 45.0 mg/kg/injection, schedule: Q03HX024 (ip), vehicle: saline): 87 % of control
- T/C (endpoint: median survival time, dose: 50.0 mg/kg/injection, schedule: Q01DX005 (ip), vehicle: saline): 165 % of control
- T/C (endpoint: median survival time, dose: 50.0 mg/kg/injection, schedule: Q01DX009 (ip), vehicle: saline): 188 % of control
- T/C (endpoint: median survival time, dose: 50.0 mg/kg/injection, schedule: Q03HX016 (ip), vehicle: saline): 188 % of control
- T/C (endpoint: median survival time, dose: 55.0 mg/kg/injection, schedule: Q03HX008 (ip), vehicle: saline): 98 % of control
- T/C (endpoint: median survival time, dose: 75.0 mg/kg/injection, schedule: Q01DX009 (ip), vehicle: saline): 213 % of control
- T/C (endpoint: median survival time, dose: 100.0 mg/kg/injection, schedule: Q01DX005 (ip), vehicle: saline): 188 % of control
- T/C (endpoint: median survival time, dose: 100.0 mg/kg/injection, schedule: Q01DX009 (ip), vehicle: saline): 201 % of control
- T/C (endpoint: median survival time, dose: 150.0 mg/kg/injection, schedule: Q01DX005 (ip), vehicle: saline): 176 % of control
- T/C (endpoint: median survival time, dose: 150.0 mg/kg/injection, schedule: Q01DX009 (ip), vehicle: saline): 202 % of control
- T/C (endpoint: median survival time, dose: 200.0 mg/kg/injection, schedule: Q01DX005 (ip), vehicle: saline): 197 % of control
- T/C (endpoint: median survival time, dose: 200.0 mg/kg/injection, schedule: Q04DX003 (ip), vehicle: saline): 207 % of control
- T/C (endpoint: median survival time, dose: 300.0 mg/kg/injection, schedule: Q04DX003 (ip), vehicle: saline): 222 % of control
- T/C (endpoint: median survival time, dose: 300.0 mg/kg/injection, schedule: Q08DX002 (ip), vehicle: saline): 172 % of control
- T/C (endpoint: median survival time, dose: 350.0 mg/kg/injection, schedule: Q01DX001 (oral), vehicle: saline): 108 % of control
- T/C (endpoint: median survival time, dose: 400.0 mg/kg/injection, schedule: Q04DX003 (ip), vehicle: saline): 246 % of control
